PubChem BioAssay AID588855 (National Center for Advancing Translational Sciences (NCATS), 2011)
In all, about 410,000 compounds went through this assay and about 5,000 (1.2%) were called active. The inconclusive results got no clear call from the source; some entries with a clear call stand among them for comparison. Calls come from the whole dose curve; as a rule, active = well fitted inhibition curve with a large enough effect; inconclusive = small, poorly fitted or top-dose-only effect; inactive = no such curve, though single readings can be large or run the other way. Potencies beside an inconclusive call are fits to weak or partial responses and may not hold up.

test: qHTS for Inhibitors of TGF-b; details: HepG2 CAGA-GFP TGF-b/SMAD3 reporter, GFP fluorescence, 18 h, TGF-beta stimulated, 500 pg/mL final; series mostly up to 46.1 µM; note: nearly all actives have a fitted effect of over 65% in size
Outline: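 Inhibition was scored as loss of TGF-beta-induced (500 pg/mL final, 18 hours, 37 degrees C) GFP in HEPG2 cells carrying a CAGA-GFP reporter, in DMEM with 1% FBS. Well GFP was summed per cell; Activity was normalised to unstimulated and stimulated DMSO wells, then concentration-response fitting.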
Potency is the fitted concentration of half-maximal effect; tags give direction and shape of the fitted curve.

SMILES	Potency
N#CCSc1nc2c(sc(=S)n2Cc2ccco2)c(=O)n1-c1ccc(F)cc1	inactive
CC(C)CC1C(=O)N(Cc2cn(CCC3OCCCO3)nn2)CCS(=O)(=O)N1Cc1ccc(-c2ccc(F)cc2)cc1 (configuration not stated)	inconclusive: 3.16 µM [inhibitor, partial curve]
CCn1c(SCc2ccc(C(=O)Nc3nccs3)cc2)nnc1-c1ccc(NC(C)=O)cc1	inconclusive: 15.8 µM [inhibitor, partial curve]
COc1ccc(NC(=O)CN(C)C(=O)Cc2n[nH]c(=O)c3ccccc23)cc1	inactive
CCOC(=O)Oc1ccc2c(c1)C(C)=CC(C)(C)N2C(=O)OCC	inconclusive: 10 µM [inhibitor, single point]
COc1cc2c(cc1OC)[C@H](Cc1ccc(O)cc1)NCC2	inconclusive: 22.4 µM [inhibitor, single point]
O=C(Cc1cccs1)Nc1cccc(-c2nc3ccccc3o2)c1	inactive
O=C(NCCCOc1ccc([N+](=O)[O-])cc1Cl)OCc1ccccc1	inactive
CC(C)C(NS(=O)(=O)c1ccccc1)C(=O)N1CCCCCC1 (configuration not stated)	inactive
N#CC[C@H](Cc1ccccc1)N1CC[C@@H](NC(=O)OCc2ccccc2)CCC1=O	inconclusive: 22.4 µM [inhibitor, single point]
Cc1nnsc1C(=O)NNC(=O)c1ccc(C(F)(F)F)cc1	inconclusive: 5.62 µM [inhibitor, single point]
O=C(Nc1ccc(C(=O)NC2CCCCC2)cc1)c1cccnc1	inactive
COc1ccc(C(=O)NCCn2cc(SCC(=O)Nc3ccc(C)cc3)c3ccccc32)cc1	inconclusive: 35.5 µM [inhibitor, partial curve, poor fit]
COc1ccc(F)cc1-c1cc(C(=O)NCc2ccc(C(F)(F)F)cc2)[nH]n1	inconclusive: 22.4 µM [inhibitor, single point]
CCn1cc(C(=O)OCC(=O)OC2CC(C)CCC2C(C)C)c(=O)c2ccc(C)nc21 (configuration not stated)	inconclusive: 35.5 µM [inhibitor, single point]
COc1cccc(C(=O)NC2CC3CCCC(C2)N3Cc2ccc(F)cc2)c1 (configuration not stated)	inactive
O=C(Cc1ccc([N+](=O)[O-])cc1)Nc1cccc(C(=O)N2CCCCC2)c1	inconclusive: 17.8 µM [inhibitor, single point]
COc1cc2c(C(=O)O)c(C)n(CC(C)C)c2c2ccccc12	inconclusive: 2.51 µM [inhibitor, partial curve, poor fit]
CC1CCC(NC(=O)CCS(=O)(=O)c2ccc3c(c2)CC(C)N3C(=O)C2CC2)CC1 (configuration not stated)	inactive
Cc1cc(C)nc(NC(=S)Nc2ccccc2)n1	inconclusive: 0.562 µM [inhibitor, full curve, poor fit]
CC(C)CC(COCc1cccc(Cl)c1)N1CCN(C(=O)c2cccc(C(F)(F)F)c2)CCC1=O (configuration not stated)	inconclusive: 12.6 µM [inhibitor, partial curve, poor fit]
COc1ccc(-c2cnc(NCc3cc4c(cc3[N+](=O)[O-])OCO4)n2C)cc1	inconclusive: 35.5 µM [inhibitor, single point]
Cc1cccc(NC(=O)c2cccnc2Oc2ccccc2)c1C(=O)O	inactive

SMILES	Potency
Cc1cc(NCc2ccccn2)n2ncc(-c3ccccc3)c2n1	inconclusive: 35.5 µM [inhibitor, single point]
CCOC(=O)C(=O)N1CCN(c2ccccc2OC)CC1	inactive
NS(=O)(=O)c1ccc(NC(=O)CN2CCCN(S(=O)(=O)c3ccc(F)cc3)CC2)cc1	inconclusive: 0.562 µM [inhibitor, partial curve, poor fit]
COc1ccc(CNC(=O)C2CCN(S(=O)(=O)c3ccc4c(c3)CC(C)N4C(C)=O)CC2)cc1 (configuration not stated)	inactive
COc1ccc(C=NNC(=O)NN=Cc2ccc(OC)c(OC)c2)cc1OC	inactive
COc1ccccc1OCCCSc1nc(-c2ccc(C(C)(C)C)cc2)nc2cc(=O)[nH]n12	inconclusive: 28.2 µM [inhibitor, single point]
COCCCn1c(=O)c2sccc2n2c(CCCC(=O)Nc3cc(C)cc(C)c3)nnc12	inconclusive: 5.62 µM [inhibitor, single point]
Cc1cccc(N(C(=O)Cn2nnc(-c3ccc(C)o3)n2)C(C(=O)NC2CCCC2)c2ccncc2)c1 (configuration not stated)	inconclusive: 6.31 µM [inhibitor, single point]
NC(=S)N=Nc1ccc(O)cc1	inconclusive: 8.91 µM [inhibitor, partial curve]
COc1ccc(NC(=O)c2ccccc2Cl)c(NC(=O)c2ccco2)c1	inconclusive: 0.282 µM [inhibitor, full curve, poor fit]
CCc1nc(Nc2ccccc2)c2nnn(Cc3ccccc3)c2n1	inconclusive: 22.4 µM [inhibitor, single point]
O=C(NCCc1ccc(F)cc1)C(=O)NCC(c1cccs1)S(=O)(=O)c1ccc(F)cc1 (configuration not stated)	inactive
Nc1cc(-c2ccccc2)nn1S(=O)(=O)c1ccc(F)cc1	inconclusive: 7.08 µM [inhibitor, partial curve, poor fit]
CC(C)c1ccc(CC(=O)N2CCC2(C)C(=O)NCc2cccc3ccccc23)cc1 (configuration not stated)	inactive
CCOc1cc(CNCc2ccccn2)cc(Cl)c1OC	inactive
CCOC(=O)c1sc(NCc2ccco2)c(-c2nc3ccccc3s2)c1N	inconclusive: 6.31 µM [inhibitor, single point]
CC1CC1C(=O)N1CCN(S(=O)(=O)c2cc(C(F)(F)F)cc(C(F)(F)F)c2)CC1 (configuration not stated)	active: 14.1 µM
CCOc1ccccc1C(=O)OC(C)C(=O)Nc1ccc(S(=O)(=O)N2CCCC2)cc1 (configuration not stated)	inactive
Cc1ccc(C2CC2C(=O)NNC(=S)Nc2cccc(Cl)c2)cc1 (configuration not stated)	inconclusive: 22.4 µM [inhibitor, single point]
O=C(CSc1nnc(COc2cccc3ccccc23)o1)N1CCN(C(=O)c2ccco2)CC1	inconclusive: 22.4 µM [inhibitor, single point]
Cc1ccc(Cl)cc1NS(=O)(=O)c1ccc2oc(=O)c3ncn(C)c3c2c1	active: 15.8 µM
COc1ccc(-c2noc(N3CCC(C(=O)Nc4ccc(F)cc4Cl)CC3)n2)cc1	inconclusive: 4.47 µM [inhibitor, full curve, poor fit]
Cc1ccc2c(c1)C(=O)OC(C(=O)Nc1ncc(Cc3ccc(C(C)C)cc3)s1)C2 (configuration not stated)	inactive

SMILES	Potency
O=C(N/N=C/c1ccc(F)cc1)c1cc(-c2ccc3c(c2)OCO3)n[nH]1	inactive
CS(=O)(=O)N(CC(=O)N1CCN(c2cccc(Cl)c2)CC1)c1cccc(F)c1	inconclusive: 0.794 µM [inhibitor, partial curve, poor fit]
O=S(=O)(N/N=C\C=C\c1ccccc1)c1ccccc1	inconclusive: 0.708 µM [inhibitor, full curve, poor fit]
CCC1CCCCN1CCCNC(=O)c1[nH]c2ccccc2c1Sc1ccc(Cl)cc1 (configuration not stated)	inconclusive: 35.5 µM [inhibitor, partial curve, poor fit]
CCOc1ccc(C(c2c(O)cc(C)n(CCOC)c2=O)N2CCN(c3ccccc3)CC2)cc1 (configuration not stated)	inactive
N/C(=N\OC(=O)COc1ccc2ccccc2c1)c1ccncc1	inactive
S=C(NCCc1ccccc1)Nc1ccc(N2CCCCC2)cc1	inconclusive: 35.5 µM [inhibitor, single point]
C/C=C1\NC(=O)[C@H](C)NC(=O)[C@@H](NC(=O)[C@H](Cc2ccc(O)cc2)NC(=O)[C@@H](NC(=O)/C(C)=C/C)C(C)C)[C@@H](C)OC(=O)[C@H](CCCc2ccc(O)cc2)NC(=O)[C@@H](CCC(=O)OC)NC1=O	inactive
CCn1c(SCc2ccc(C)cc2)nnc1C1CCN(S(=O)(=O)c2ccc(OC)cc2)CC1	inconclusive: 5.62 µM [inhibitor, single point]
CC1CN(C(=O)N2CCC(C(=O)NCc3cccs3)CC2)c2cc(Cl)ccc2O1 (configuration not stated)	inconclusive: 11.2 µM [inhibitor, single point]
Cc1ccc(C)c(NC(=O)C2CCCN(c3nc4ccccc4s3)C2)c1 (configuration not stated)	inconclusive: 3.16 µM [inhibitor, full curve, poor fit]
CC(C)N(C(=O)COC(=O)c1cccc(S(=O)(=O)N2CC3(C)CC2CC(C)(C)C3)c1)C(C)C (configuration not stated)	inconclusive: 25.1 µM [inhibitor, single point]
CC(=O)NC(c1cc(F)c2cccnc2c1O)C1CC1 (configuration not stated)	inconclusive: 12.6 µM [inhibitor, partial curve]
O=C(Nc1ccc(Cl)cc1)C1Cc2c(-c3cccc(F)c3)ccnc2O1 (configuration not stated)	inconclusive: 15.8 µM [inhibitor, single point]
COc1ccc(NC(=O)COc2ccccc2Cc2ccccc2)cn1	inconclusive: 35.5 µM [inhibitor, single point]
O=C(Nc1ccc(S(=O)(=O)Nc2ccccc2)cc1)C1COc2ccccc2O1 (configuration not stated)	active: 12.6 µM
O=C(O)c1cc2ncc(-c3[nH]ncc3[N+](=O)[O-])cn2n1	inactive
Nc1ccccc1Nc1nc2ccccc2[nH]1	inconclusive: 35.5 µM [inhibitor, single point]
Cc1cccc(NC(=O)CCS(=O)(=O)c2cccc3nsnc23)c1C	inconclusive: 7.94 µM [inhibitor, partial curve]
COc1cccc(C(=O)NCCc2csc(-c3ccc(Cl)cc3)n2)c1	active: 12.6 µM
Cc1ccc(NC(=O)C2CCN(S(=O)(=O)c3ccc4[nH]c5c(c4c3)CCCCC5)CC2)cc1	inconclusive: 2.24 µM [inhibitor, partial curve, poor fit]
